PubChem BioAssay AID686970 (National Center for Advancing Translational Sciences (NCATS), 2013)
About 6,000 (1.7%) of roughly 360,000 compounds were called active. Inconclusive results, whose numbers are uncertain, are shown with a selection of clear calls. The call rests on the fitted dose curve; in most records, active means well fitted cell-killing curve with a large enough effect; inconclusive means small, poorly fitted or top-dose-only effect, or effect the other way; inactive means flat fitted curve, though single readings scatter. Potencies of inconclusive entries are left out as doubtful fits.
Potency means the concentration at half of the fitted maximal effect; tags describe the fitted curve by direction and shape.

Assay: qHTS for induction of synthetic lethality in tumor cells producing 2HG: qHTS for the HT-1080-NT fibrosarcoma cell line;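 further: NT is the 2HG producing partner of a matched IDH1 knockdown line; nearly all actives have a fitted effect of over 55% in size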;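 on activity, negative = less viability: 0% = DMSO-treated cells and -100% = media-only wells without cells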
Settings: HT-1080-NT fibrosarcoma viability, CellTiter-Glo ATP luminescence, 48 h; activity, negative = less viability: at 46.1 µM (top of the series) unless noted
In short: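 HT-1080-NT; 750 cells/well; 5% FBS RPMI; 48 h compound, 37 degrees C; CellTiter-Glo luminescence; curve fitting and curve-class assignment.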
For `CCOC(=O)c1c(CNCCN(CC)CC)n(C)c2cc(Br)c(OC)cc12`, the Potency was inconclusive [cytotoxic, single point].
With `COc1cc(OC)c2c(-c3cccc(-c4ccc(C(C)=O)cc4)c3)cc(=O)oc2c1` the Potency was active: 5.17 µM.
In the case of `CC(C)C1C(=O)N(Cc2cn(CC3CCCCC3)nn2)CCS(=O)(=O)N1Cc1ccc(-c2ccc(Cl)cc2)cc1` (centres undefined), the Potency is reported as inconclusive [cytotoxic, single point].
With `CCNC(=S)Nc1ccc(N(c2ccccc2)C(C)C)cc1` the Potency was inconclusive [cytotoxic, single point].
For `Cc1ccc(NC2=C(Cl)C(=O)OC2OC(=O)c2ccco2)cc1` (centres undefined), the Potency was inconclusive [cytotoxic, single point].
In the case of `COc1ccc(C(=O)NC2CCCc3c2cnn3-c2cccc(C)c2C)o1` (centres undefined), the Potency is reported as active: 20.6 µM.
For `S=C(NCc1ccco1)Nc1ccc(Oc2ccc(Cl)cc2)cc1`, the Potency was inconclusive [cytotoxic, partial curve].
With `O=C(CCNC(=O)c1ccc(Br)cc1)Nc1nc2ccccc2[nH]1` the “activity, negative = less viability” value was inactive: 14.5%.
For `Cc1ccc2nc3c(c(Nc4ccccc4)c2c1)CCC3`, the Potency was inconclusive [cytotoxic, partial curve].
With `CCCSc1nn2c(=O)c3ccccc3nc2s1` the “activity, negative = less viability” value was inactive: -1.74%.
For `CN(C)CCC(=O)N1C/C(=C/c2ccccc2)C(=O)/C(=C\c2ccccc2)C1`, the Potency was inconclusive [cytotoxic, full curve, poor fit].
In the case of `COc1cccc(C(c2nnnn2-c2c(C)cccc2C)N2CCN(C/C=C/c3ccccc3)CC2)c1OC` (centres undefined), the activity, negative = less viability is reported as inconclusive: -33.3% [cytotoxic].
With `OC(c1ccc(-c2ccccc2)cc1)c1ncc(-c2cccc(F)c2)[nH]1` (centres undefined) the Potency was inconclusive [cytotoxic, single point].
For `CCc1ccc(/C=N/n2c(C3CCCCC3)n[nH]c2=S)cc1`, the Potency was inconclusive [cytotoxic, single point].
With `COc1ccc(C2CC(c3ccc(Br)cc3)=NN2C(=O)CSC2=NCCS2)cc1` (centres undefined) the Potency was inconclusive [cytotoxic, single point].
With `Cc1cc(C)c2c(=O)[nH]c(SCc3ccc([N+](=O)[O-])cc3)nc2n1` the “activity, negative = less viability” value was inactive: -4.37%.
In the case of `CCn1nc(NC(=O)Cc2ccc(OC)cc2)c2cc3cc(C)ccc3nc21`, the “activity, negative = less viability” value is reported as inactive: 12.9%.
With `CCOCC(=O)Nc1ccc(S(=O)(=O)NCCc2ccccc2)cc1` the Potency was inconclusive [cytotoxic, single point].
In the case of `N/C(CC(=O)Nc1ccc(F)c(Cl)c1)=N\OC(=O)c1cccs1`, the Potency is reported as inconclusive [cytotoxic, single point].
